About 530 (0.13%) of roughly 410,000 compounds were called active. The inconclusive results got no clear call from the source; some entries with a clear call stand among them for comparison. The call rests on the fitted dose curve; in most records, active means well fitted inhibition curve with a large enough effect; inconclusive means small, poorly fitted or top-dose-only effect, or another doubt; inactive means no such curve, though single readings can be large or run the other way. A potency beside an inconclusive call is a rough fit, not a confirmed value.
Assay: qHTS of GLP-1 Receptor Inverse Agonists: Cytotox Screen
Settings: HEK293 cAMP-luciferase reporter cells, luminescence, 24 h; activity change, negative = inhibition: at 38.3 µM (top of the series) unless noted
How it was run: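 Quantitative HTS format, 1536 wells, 200 cells/uL seeded. Compounds: 23 nL, 24 h, 37 °C. Detection: luciferase reagent, luminescence at 12 min RT; decreased signal taken as cytotoxic.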
With Nc1c(Cl)cc(C2=NCCn3c2c2ccc([N+](=O)[O-])cc2[n+]3[O-])cc1Cl the Potency was inconclusive: 5.01 µM [inhibitor, full curve, poor fit].
In the case of CCOc1cc(CNC2CCCC2)ccc1OCc1ccccc1Cl, the Potency is reported as inconclusive: 28.2 µM [inhibitor, single point].
In the case of COc1ccccc1NS(=O)(=O)c1cc(NC(=O)c2ccc(NC(C)=O)cc2)ccc1N1CCOCC1, the “activity change, negative = inhibition” value is reported as inactive: -27.4%.
In the case of Cc1ccc2c(c1)C1(SCCS1)C(=O)N2, the Potency is reported as inconclusive: 31.6 µM [inhibitor, single point].
For CCOc1ccc(/C=N/Nc2nc(C)cs2)c(O)c1, the Potency was active: 3.16 µM.
For COc1ccccc1-c1cc(C(F)(F)F)nc(S(=O)(=O)CCCC(=O)NC(C)C)n1, the Potency was inconclusive: 1.26 µM [inhibitor, full curve, poor fit].
For S=C(Nc1ccc(Cl)c(Cl)c1)NN1CCOCC1, the Potency was inconclusive: 28.2 µM [inhibitor, single point].
For CN(CCOc1ccccc1)CC(=O)Nc1cccc(C#N)c1, the Potency was inconclusive: 28.2 µM [inhibitor, single point].
With COc1ccccc1NC(=O)Nc1nc(CC(=O)NCc2c(F)cccc2F)cs1 the Potency was inconclusive: 10 µM [inhibitor, single point].
In the case of O=[N+]([O-])c1ccc(Sc2cccc3cccnc23)c([N+](=O)[O-])c1, the Potency is reported as active: 3.16 µM.
For COc1ccc(-n2c(CCc3ccccc3)n[nH]c2=S)cc1, the Potency was inconclusive: 8.91 µM [inhibitor, partial curve, poor fit].
In the case of CCCNc1nc(OCC(F)(F)F)nc(OCC(F)(F)F)n1, the “activity change, negative = inhibition” value is reported as inactive: 3.21%.
With O=C(COc1ccc(Cl)cc1)Nc1nc(-c2ccc(S(=O)(=O)N3CCOCC3)cc2)cs1 the “activity change, negative = inhibition” value was inactive: 20.8%.
For O=C(CN1CCc2ccccc2C1)Nc1ccccc1C(F)(F)F, the “activity change, negative = inhibition” value was inactive: 7.74%.
For COc1cccc(OCCNc2cc(Cl)ccc2[N+](=O)[O-])c1, the Potency was inconclusive: 28.2 µM [inhibitor, single point].
With COc1cccc(CNc2ncnc3c2nnn3C)c1 the “activity change, negative = inhibition” value was inactive: 6.48%.
With O=C1c2ccccc2C2=Nc3ccccc3SC(c3cccc(F)c3)C12 (stereo unspecified) the Potency was active: 7.94 µM.
With CC(=O)c1cc2c(cc1NS(=O)(=O)c1ccc(C)cc1)OCCO2 the Potency was inconclusive: 4.47 µM [inhibitor, full curve].
With Fc1ccc(NC(=S)NCc2ccccc2Cl)cc1 the Potency was inconclusive: 28.2 µM [inhibitor, single point].
With CCC(C)N=C1Sc2nc3ccc(C)cc3cc2CN1CCOC (stereo unspecified) the Potency was inconclusive: 28.2 µM [inhibitor, single point].
With Nc1nc(N)c2cc(Sc3ccc(Cl)cc3)ccc2n1 the Potency was inconclusive: 20 µM [inhibitor, single point].
With Cc1cc(C)c2nc(N(CCCN(C)C)C(=O)c3ccc4c(c3)CCCC4)sc2c1 the Potency was inconclusive: 22.4 µM [inhibitor, single point].
In the case of O=C1/C(=C\c2cccnc2)CN(Cc2ccccc2)C/C1=C\c1cccnc1, the Potency is reported as inconclusive: 2 µM [inhibitor, full curve, poor fit].
For COC(C/C=C\[C@@H](O)[C@H](C)OCc1ccccc1)OC, the Potency was inconclusive: 28.2 µM [inhibitor, single point].
For O=C(c1ccccc1)N1N=C(c2cccs2)CC1c1ccccc1O (stereo unspecified), the “activity change, negative = inhibition” value was inactive: 0.293%.
In the case of Cc1ccc(NC(=O)CCn2nc(-c3ccccc3)c3ccccc3c2=O)c(C)c1, the “activity change, negative = inhibition” value is reported as inactive: 6.49%.
In the case of COc1ccc(Nc2ccc3ccccc3c2)cc1, the Potency is reported as inconclusive: 28.2 µM [inhibitor, single point].
In the case of COc1cc(C2C3=C(COC3=O)Oc3cc4c(cc32)OCO4)cc(OC)c1OC(C)=O (stereo unspecified), the Potency is reported as inconclusive: 0.316 µM [inhibitor, full curve, poor fit].
With C#CCOCCOCCOCCNc1nc(N2CCN(C(=O)[C@H]([C@@H](C)CC)n3cc([C@@H](N)CO)nn3)CC2)nc(N2CCN(C(=O)[C@H](CCCCN)n3cc([C@@H](N)C(C)CC)nn3)CC2)n1 (stereo partly specified) the “activity change, negative = inhibition” value was inactive: 8.29%.
In the case of CC(C)CC(=O)NC(Nc1ccc([N+](=O)[O-])cc1)C(Cl)(Cl)Cl (stereo unspecified), the Potency is reported as inconclusive: 28.2 µM [inhibitor, single point].
In the case of CC(c1ccccc1C(O)(c1ccccc1)c1ccccc1)N(C)C (stereo unspecified), the Potency is reported as inconclusive: 28.2 µM [inhibitor, single point].
In the case of COc1cc(Cl)c(C)cc1NC(=O)c1ccccc1NC(=O)CN1CCOCC1, the Potency is reported as inconclusive: 28.2 µM [inhibitor, single point].
With O=C(Nc1cccnc1)c1ccc(CN2CCc3ccccc3C2)cc1 the “activity change, negative = inhibition” value was inactive: 3.89%.
In the case of CCC1Nc2ncnc(N3CCCCC3)c2N(Cc2ccc(Br)cc2)C1=O (stereo unspecified), the “activity change, negative = inhibition” value is reported as inactive: -0.0706%.
With Clc1ccc2c(N/N=C/c3cccc(Br)c3)ccnc2c1 the Potency was inconclusive: 28.2 µM [inhibitor, single point].
With COc1ccccc1NC(=O)c1ccc2[nH]c(C)cc(=O)c2c1 the “activity change, negative = inhibition” value was inactive: -1.03%.
With NC(=S)NN=C1CCC(C2CCCCC2)CC1 (stereo unspecified) the Potency was inconclusive: 3.55 µM [inhibitor, full curve, poor fit].
With CN(C)/C=N/C(=S)Nc1ccc(Cl)c(Cl)c1 the Potency was inconclusive: 0.501 µM [inhibitor, full curve, poor fit].
For COC(=O)c1cnn(-c2ccc(Cl)cc2)c1/C=N/NC(N)=S, the Potency was inconclusive: 28.2 µM [inhibitor, single point].
In the case of Cc1c(C(=O)NCc2ccc(Cl)c(Cl)c2)sc(=O)n1Cc1ccc(S(=O)(=O)N(C)C)cc1, the “activity change, negative = inhibition” value is reported as inactive: 1.45%.
In the case of S=C(Nc1ccccc1)N1CCc2ccccc21, the “activity change, negative = inhibition” value is reported as inactive: -4.1%.
With Cc1ccc2c(c1)cc(C(=O)NCc1ccc(F)cc1)n2C the “activity change, negative = inhibition” value was inactive: 1.61%.
For OCCC1CN(Cc2cccc(C(F)(F)F)c2)CCN1Cc1ccccc1 (stereo unspecified), the Potency was inconclusive: 28.2 µM [inhibitor, single point].
With CCCOc1ccccc1C(=O)N1CCCCC1CCN1CCCCC1 (stereo unspecified) the “activity change, negative = inhibition” value was inactive: -10.4%.
With CCC(=O)Nc1ccc(C(=O)NNC(=O)c2cccc(C)c2)cc1 the Potency was inconclusive: 10 µM [inhibitor, single point].
With C[C@H](CO)N1C[C@H](C)[C@@H](CN(C)Cc2ccc(Cl)c(Cl)c2)OCCCC[C@H](C)Oc2ccc(NC(=O)CCC(F)(F)F)cc2C1=O the Potency was inconclusive: 28.2 µM [inhibitor, single point].
With COC(=O)c1ccc(C(=O)OC)c(NC(=O)CSc2cccc[n+]2[O-])c1 the Potency was inconclusive: 3.55 µM [inhibitor, full curve].
In the case of CCn1c(C)nnc1SCC(=O)Nc1nccs1, the Potency is reported as inconclusive: 28.2 µM [inhibitor, single point].
With COc1ccccc1N1CCN(C(=O)C(F)F)CC1 the “activity change, negative = inhibition” value was inactive: 10.3%.
With Cc1cccc(N=C2NN=C(c3c[nH]c4ccccc34)CS2)c1 the Potency was inconclusive: 0.316 µM [inhibitor, full curve, poor fit].
In the case of BrC(=C\c1ccccc1)/C=N/N1CCN(c2ccccc2)CC1, the Potency is reported as inconclusive: 12.6 µM [inhibitor, single point].
In the case of CCn1c2ccc(F)cc2c2nnc(NN)nc21, the Potency is reported as inconclusive: 28.2 µM [inhibitor, single point].
For CC(=O)c1c(C)n([O-])c2cc(F)c(F)cc2[n+]1=O, the Potency was inconclusive: 28.2 µM [inhibitor, single point].
For FC(F)(F)Sc1ccc(NC(=S)NCc2ccccc2)cc1, the Potency was inconclusive: 28.2 µM [inhibitor, single point].
In the case of NC(=O)c1ccccc1NC(=O)CCn1c(=S)oc2ccccc21, the “activity change, negative = inhibition” value is reported as inactive: 7.52%.
For CN(Cc1ccccc1)C(=O)c1[nH]cnc1C(=O)NCC(=O)OC(C)(C)C, the Potency was inconclusive: 0.316 µM [inhibitor, full curve, poor fit].
With CCOC(=O)C1CCN(C(=O)Cn2cnc3sc(C)c(S(=O)(=O)N4CCOCC4)c3c2=O)CC1 the “activity change, negative = inhibition” value was inactive: 0%.
In the case of Cc1ccn2c(Nc3ccc4c(c3)OCO4)c(-c3ccc(C)o3)nc2c1, the “activity change, negative = inhibition” value is reported as inactive: -1.01%.
For Oc1ccccc1CNCCCNCc1ccccc1O, the Potency was inconclusive: 7.08 µM [inhibitor, partial curve].
With CC1=CC2=C(C=O)C(=O)C(C)(O)C(O)C2=CO1 (stereo unspecified) the “activity change, negative = inhibition” value was inactive: 12.8%.
With O=C1c2cc(Br)ccc2OC2C=CC=CC12 (stereo unspecified) the “activity change, negative = inhibition” value was inactive: 1.79%.
With COc1ccc(C(=O)c2cc([N+](=O)[O-])ccc2N2CCCC2)cc1 the Potency was inconclusive: 1.12 µM [inhibitor, full curve].
With COc1ccc(CCNC(=O)C(=O)NCC2CCCN2S(=O)(=O)c2ccccc2)cc1OC (stereo unspecified) the Potency was inconclusive: 28.2 µM [inhibitor, single point].
For O=C(Nc1cc(Cl)ccc1O)c1snnc1-c1ccccc1, the Potency was inconclusive: 3.55 µM [inhibitor, partial curve, poor fit].
For Cc1nc(NC(=O)c2ccc(Cl)cc2)sc1Cc1ccc2c(c1)OCO2, the Potency was inconclusive: 4.47 µM [inhibitor, partial curve, poor fit].
In the case of COc1cc(O)ccc1-c1nc2ccc(Br)cn2c1Nc1ccccc1C, the Potency is reported as inconclusive: 12.6 µM [inhibitor, single point].
With CC(NC(=S)Nc1ccc(OC(F)F)c(Cl)c1)C(C)(C)C (stereo unspecified) the Potency was inconclusive: 31.6 µM [inhibitor, partial curve, poor fit].
With O=C(NCc1ccccc1)C1Cc2c(-c3cccc(F)c3)ccnc2O1 (stereo unspecified) the Potency was inconclusive: 1.58 µM [inhibitor, full curve, poor fit].
With CC(=O)Oc1ccc(C(=O)Nc2cccc(C(=O)c3ccc(C)c(C)c3)c2)cc1 the Potency was inconclusive: 20 µM [inhibitor, single point].
For CCOC(=O)c1cccc(Nc2cc(C)nc(C)n2)c1, the “activity change, negative = inhibition” value was inactive: -15.4%.
For COc1cc(/C=C/C(=O)OCC(=O)N2c3ccccc3NC(=O)C2(C)C)cc(OC)c1OC, the Potency was inconclusive: 11.2 µM [inhibitor, single point].
On the % scale 0 is the no-effect control and ±100 the full control effect; potency means the concentration at half of the fitted maximal effect.
